PubChem BioAssay AID651820 (National Center for Advancing Translational Sciences (NCATS), 2012)
About 12,000 (3.5%) of roughly 340,000 compounds were called active. Inconclusive results, whose numbers are uncertain, are shown with a selection of clear calls. Calls follow the shape of the dose curve; as a rule, active = well fitted inhibition curve with a large enough effect; inconclusive = small, poorly fitted or top-dose-only effect, or another doubt; inactive = no such curve, though single readings can be large or run the other way. Potencies of inconclusive entries are left out as doubtful fits.

experiment: qHTS Assay for Inhibitors of Hepatitis C Virus (HCV); details: Huh7.5.1 HCVcc-Cre (HCVcc is cell-culture hepatitis C virus) infection, luciferase reporter, 44 h; activity change, negative = inhibition: at 41.8 µM (top of the series)
How it was run: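 Seed cells (1,000/well) for 4 h; treat with compound and infect with HCVcc-Cre, moi about 0.5. Incubate 44 h, then detect luciferase activity.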
% is scaled to controls: 0 for no effect and ±100 for the full control effect; potency is read from the fitted curve at half-maximal effect; tags tell the direction and shape of the fitted curve.

| SMILES | Potency | activity change, negative = inhibition |
| --- | --- | --- |
| O=C(Cn1c[n+](CC(=O)c2ccc([N+](=O)[O-])cc2)cn1)c1ccc([N+](=O)[O-])cc1 | inconclusive [inhibitor, single point] |  |
| COc1ccc(N2CC(C(=O)N3CCC4(CC3)CC(=O)c3ccccc3O4)CC2=O)cc1 (centres undefined) | inconclusive [inhibitor, single point] |  |
| O=C(Nc1ccc(Cc2ccc(NC(=O)N3CCOCC3)cc2)cc1)N1CCOCC1 | inconclusive [inhibitor, partial curve] |  |
| O=C(NCC1CCCN1S(=O)(=O)c1cccs1)C(=O)Nc1ccccc1Cl (centres undefined) | inactive |  |
| O=C1c2ccccc2C(=O)N1Cc1cc(-c2ccccc2)no1 | inactive |  |
| Cc1ccc(C)c(Nc2nc3ccccc3n3cnnc23)c1 | inactive |  |
| COc1ccc(OC)c(NC(=O)C(=O)NCc2ccncc2)c1 | inconclusive [inhibitor, single point] |  |
| O=C(Nc1ccc(Oc2cccnc2)cc1)C1CCN(Cc2ccccc2F)CC1 | inconclusive [inhibitor, single point] |  |
| CCOC(=O)N1C(=O)[C@](c2ccc(Cl)cc2)(C(C)C)N1C(=O)OCC | inactive |  |
| O=C(CN1C(=O)C2CC=CCC2C1=O)NCc1ccc2c(c1)OCO2 (centres undefined) | inconclusive [inhibitor, single point] |  |
| COC(=O)C1=C(c2ccc(-c3ccccc3)c(F)c2)C[C@@H]2CC[C@H]1N2C(=O)NCc1cccc2ccccc12 | inconclusive [inhibitor, full curve] |  |
| Cc1ccc(S(=O)(=O)/C(=C/Cl)NC(=O)c2ccccc2)cc1 | inconclusive [inhibitor, single point] |  |
| O=c1c2ccccc2nc(SCc2nc3ccccc3s2)n1CCCO | inconclusive [inhibitor, single point] |  |
| CC(C)CSC1=NSC2=NC(=O)/C(=C\c3cccs3)C(=N)N12 | inconclusive [inhibitor, single point] |  |
| COC(=O)C1=C(C)NC(=O)/C1=C\c1ccco1 | inactive |  |
| COc1ccc(S(=O)(=O)N(CC(=O)NN=C2CCN(C)CC2)c2cc(Cl)ccc2OC)cc1OC | inactive |  |
| CC(C)C(=O)Nc1cccc(-c2csc(-c3ccccc3)n2)c1 | inconclusive [inhibitor, full curve] |  |
| NC(=O)[C@@H]1CCCNc2c(F)cc([N+](=O)[O-])cc2C(=O)N[C@@H](CO)C(=O)N[C@@H](Cc2ccc(O)cc2)C(=O)N1 |  | inactive: 1.04% [at 8.37 µM] |
| COc1cc(C(=O)c2ccccc2)c(OC)cc1C(=O)Nc1ccc(O)cc1 | inconclusive [inhibitor, single point] |  |
| C=CCn1c(SCc2ccc(C#N)cc2)nnc1-c1cccc(OC)c1 | inactive |  |
| COc1ccc(OC)c(C(C)NS(=O)(=O)c2cccs2)c1 (centres undefined) | inconclusive [inhibitor, single point] |  |
| CCOC(=O)c1c(NC(=O)Cn2cnc([N+](=O)[O-])n2)sc2c1CCCC2 | inconclusive [inhibitor, partial curve] |  |
| CCn1c(C)c(C(=O)Nc2ccc(OC)cc2)c2cc(OC)ccc21 | inconclusive [inhibitor, full curve, poor fit] |  |

| SMILES | Potency | activity change, negative = inhibition |
| --- | --- | --- |
| COc1ccc(N2CCCC2)c(NC(=O)COc2ccccc2)c1 | inconclusive [inhibitor, partial curve] |  |
| CCc1c(C)nc2ccc(Br)cc2c1SCCC#N | inconclusive [inhibitor, full curve] |  |
| COc1ccc(NC(=O)c2cccc(NC(=O)C(C)C)c2)c([N+](=O)[O-])c1 | inconclusive [inhibitor, full curve, poor fit] |  |
| Cc1ccc(NC(=O)CSc2ccc(C(N)=O)cc2[N+](=O)[O-])cc1 | inactive |  |
| Nc1sccc1C(=O)c1ccccc1 | inactive |  |
| Cc1ccccc1NC(=O)c1sc2nc(N3CCOCC3)c3c(c2c1N)CCCC3 | inconclusive [inhibitor, partial curve] |  |
| O=C1CC(N2CCN(Cc3ccc(Cl)cc3)CC2)C(=O)N1CCc1ccccc1 (centres undefined) | inconclusive [inhibitor, single point] |  |
| O=C(CCC(=O)NNC(=O)COc1ccc(Br)cc1)NCc1ccccc1 | inactive |  |
| COc1ccc(C(=O)C[n+]2ccc3c(c2)nnn3-c2ccccc2)cc1 | inconclusive [inhibitor, partial curve] |  |
| COc1ccccc1CCN=C(N)NS(=O)(=O)c1ccc(C)c(C)c1 | inconclusive [inhibitor, single point] |  |
| COc1cc(NC(=O)c2cccnc2Sc2ccc(Cl)cc2)cc(OC)c1OC | inconclusive [inhibitor, single point] |  |
| CCOC(=O)c1ccc(CSc2nnc(C)n2N)o1 | inactive |  |
| CCN(CC)c1ccc(NC(=O)CN2CCN(CC(=O)Nc3ccccc3OC)CC2)cc1 | inconclusive [inhibitor, single point] |  |
| COc1ccc(-c2n[nH]c(=S)n2/N=C/C=C\c2ccccc2OC)cc1 | inconclusive [inhibitor, full curve, poor fit] |  |
| C[C@@H]1CC[C@H](O)/C=C/C(=O)O[C@H](C)CC[C@H](O)/C=C/C(=O)O1 | inconclusive [inhibitor, single point] |  |
| CC1(C)C(=O)CC[C@@]2(C)C1=CCC1C2CC[C@]2(C)C(=O)CCC12 (some centres undefined) | inactive |  |
| COC(=O)CCc1nc2cc(Cl)ccc2n(Cc2ccccc2)c1=O | inconclusive [inhibitor, partial curve] |  |
| Cc1ccc(C(=O)OCC(=O)Nc2ccc3[nH]c(=O)[nH]c3c2)o1 | inconclusive [inhibitor, single point] |  |
| CN1CCC(OC(=O)c2ccc(Cl)cc2Cl)CC1 | inconclusive [inhibitor, single point] |  |
| Cc1ccc(Oc2nc(-c3ccccn3)nc3ccccc23)cc1 |  | inconclusive: -67.8% [inhibitor] |
| O=C(COCc1cc(-c2ccc3c(c2)OCO3)on1)Nc1cccnc1Cl | inactive |  |
| O=C(Oc1cccc(NC(=O)c2ccccc2Cl)c1)c1ccc([N+](=O)[O-])cc1 | inconclusive [inhibitor, single point] |  |
| O=C(Nc1ccc(OC(F)F)c(Cl)c1)[C@@H]1CCCN1C(=O)c1cccs1 | inactive |  |

| SMILES | Potency | activity change, negative = inhibition |
| --- | --- | --- |
| Cc1nccc2c1[nH]c1ccc(Br)cc12 | active: 3.98 µM |  |
| CN(C)c1nc(OCCNC(=O)COc2ccc(Cl)cc2Cl)nc(N(C)C)n1 | inconclusive [inhibitor, single point] |  |
| CCOc1cc(-c2cc(-c3ccc(NC(C)=O)cc3)nc(N)c2C#N)ccc1O | active: 11.2 µM |  |
| O=C(CSc1nc(-c2ccccc2)c(-c2ccccc2)o1)N1CCOCC1 | inconclusive [inhibitor, full curve] |  |
| C=CCCC(=O)N1CCC(n2nccc2NC(=O)CCCc2ccccc2)CC1 | inactive |  |
| CCCCNC(=NCc1cccc(C(F)(F)F)c1)Nc1ccccc1 | inconclusive [inhibitor, single point] |  |
| COc1ccc(CCNC(=O)C23CN(Cc4ccccc4)CC2C(c2cccc([N+](=O)[O-])c2)=NO3)cc1 (centres undefined) | inactive |  |
| Cc1c(C(=O)C(C)C)n(C)c2ccccc12 | inconclusive [inhibitor, single point] |  |
| CCOC(=O)c1nn(-c2ccc(C)cc2)c2nc(Nc3ccccc3)cc(=O)n12 | inconclusive [inhibitor, partial curve, poor fit] |  |
| COc1ccc(NC(=O)CSCC(=O)Nc2cc(Cl)ccc2N2CCOCC2)cc1 | inconclusive [inhibitor, partial curve, poor fit] |  |
| CCO[C@H]1OC(C(=O)O)=C[C@@H](c2cn(C(C)=O)c3ccccc23)[C@@H]1CCCO |  | inactive: 24.7% [at 8.37 µM] |
| O=C(CC1C(=O)NCCN1Cc1ccoc1)NCc1cccc(OC(F)(F)F)c1 (centres undefined) | inactive |  |
| COc1ccccc1N1CCN(S(=O)(=O)c2cc3[nH]c(=O)c(=O)[nH]c3cc2C)CC1 | inactive |  |
| O=C(Nc1ccccc1-c1ccccc1)c1ccc(Cl)c([N+](=O)[O-])c1 | inconclusive [inhibitor, single point] |  |
| c1cncc(CNc2ncnc3sc4c(c23)CCC4)c1 | inconclusive [inhibitor, single point] |  |
| COc1ccc(CCN(Cc2cccs2)S(=O)(=O)c2ccc(-n3cnnn3)cc2)cc1OC | active: 11.2 µM |  |
| Cc1cccnc1CCNCc1c(C(=O)N2C[C@@H](C)O[C@@H](C)C2)nc2ccc(Cl)cn12 | inactive |  |
| COc1cccc(CN(C)CC(=O)Nc2c(C)cccc2C(C)C)c1 | inconclusive [inhibitor, partial curve] |  |
| O=C(Nc1cccnc1)Nc1ccccc1Cl | inconclusive [inhibitor, full curve] |  |
| COc1cccc(/C=c2/s/c(=C(\C#N)C(=O)N3CCOCC3)n(-c3ccccc3)c2=O)c1 | inconclusive [inhibitor, partial curve, poor fit] |  |
| CCOc1ccc2nc3sc(C(=O)N4CCOCC4)c(N)c3cc2c1 | inconclusive [inhibitor, partial curve] |  |
| COc1cccc(/C=C/c2ccc3cccc(O)c3n2)c1OC | active: 10 µM |  |
| CCOC(=O)c1cnc(SC)nc1Oc1cccc(NS(=O)(=O)c2ccc(F)cc2)c1 | inconclusive [inhibitor, partial curve] |  |
